In the supplement of paper PMC11417369:
The list shows a part of the results.

tested on: PfSIP2 AP2 domain 1 (GST-tagged); experiment: gcPBM binding intensity (ln(normalized median fluorescence intensity)); higher = stronger DNA binding
Summary of the method: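 Alexa488 anti-GST antibody, scanned at 488 nm, detected GST-tagged P. falciparum DNA-binding domains that had been expressed in E. coli and incubated for 1 h on an Agilent 4 × 180k array. The array carried primer-extended double-stranded 36-bp intergenic genomic probes and negative controls. Binding intensity is the highest Masliner-normalised natural-log median intensity across replicate spots of either orientation of each probe.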

Sequence	gcPBM binding intensity (ln)
TACTTATGTGCATACCTACACACTTACATATATATA [CACACA_site2975]	7.75
GATGATGTTTATTTGTGTACATATTAATACTTAATA [XGTACX_site1902]	7.61
AAGAACAGAACGTACACACACATATATATATATATA [CACACA_site3457]	9.32
AAAAAAAGAATGTGAACACACACATTGAATATAATT [CACACA_site8341]	6.79
AATTATTTACCCTATACACACAAAACCCACTAAAAA [CACACA_site4801]	7.54
TATAAATAAATACATACACACACATACATATATATA [CACACA_site9024]	7.42
AATCATATGAAAAATACATGCGCATGGATACCTTTA [TGCATGCA_site224]	6.7
ATAGGACATGTATCCAGTACATATTTAAAAAAAATA [XGTACX_site88]	6.84
GCATATATCAAATATCGTACATTTTTTAAATTAAAA [XGTACX_site3994]	7.04
ATAAAATCAAAATATACACACAAGGGGGAAAATCAA [CACACA_site2809]	7.32
TTTGTAAGTCTTTGTTGTACTCAATAGAATGAAGAA [XGTACX_site8930]	7.68
TTTTCTTTTTTTTATTGTACTTATAAAAATAAATAA [XGTACX_site3498]	7.03
TGATAACCTAATAATACACACACATGAATATATATA [CACACA_site8226]	7.09
GTCGCCAAAAGGTGTACACATAATGCATTATCATAA [CACACA_site6112]	7.58
TAAAAAAAATAGCATACACACATATATACATATATA [CACACA_site658]	6.78
ATTAAAAAATTATTCACACAAAATAAAAAAATGAAA [CACACA_site4918]	6.93
TACACATAATATAATGCATGTGTGATGTATGTTTAA [TGCATGCA_site697]	6.87
ATATTTAGGATTATCTGTACATAATATGTTTAATTA [XGTACX_site3426]	7.14
AAAATTATTTTTATGTGTACTTATTTATTATTTATA [XGTACX_site6665]	7.07
TTGTATTCCTTTTACAACTACCATGAAGAGAATTTT [CACACA_negctrl_site1286]	6.94
AAAAAAAACGCACATACACACACACCCATATATATA [CACACA_site9118]	7.41
TTTTATTTTTTCCGACGTACATCCATTATATATAAT [XGTACX_site4469]	7.22

Sequence	gcPBM binding intensity (ln)
AAATGTTAAAATGACAGTACATATATAAAAAAAAAA [XGTACX_site3936]	6.89
AAATATTTGGAGAAATGTACATATTATAAATATATT [XGTACX_site6885]	6.98
CTAGGAAATTATATGGGTACTCATATTCATAAAAAA [XGTACX_site1846]	6.93
TGCATGCATTATCATAGTACATATAATGTTGTATAA [XGTACX_site2775]	6.97
TAATCTTTCGTACATGTACACACAGAAAAAAAAAAA [CACACA_site8798]	7.17
ATTATTAAGTTTCACAAGAACATTGTTAACAATTTT [CACACA_negctrl_site1128]	6.92
TATTAAGTATTTTACGTACACACTTATAAATGTACA [CACACA_site3885]	7.01
AATTTATATTTTCGTAGTACGTATTTTATTCTTTTG [XGTACX_site4162]	6.76
TATAAGGTGTCCTATACACACTCCAATAGATATATA [CACACA_site7066]	6.94
CTGAACCCGTTATGGTGTACATAAAATAAGACACAG [XGTACX_site3484]	7.69
ATTACATGCAATATATGTACGTAATATATATATATA [XGTACX_site2300]	9.14
AAAAAAAAAAAGTACACACATACATATAAATATATA [CACACA_site1809]	7.52
AAAGACGCAAAATTGGTGCGCTGCTTTTAGCATTTT	9.78
ACAGAATATTTAATTCAACACACATACATATTTATT [CACACA_site8734]	7.06
ATTTATATCCTTAAACGTACATTGTATTGTATTTTA [XGTACX_site6080]	6.82
AATAATCATGATCAAAGTACTTATGAATACCAAAAA [XGTACX_site2572]	7.13
GCATCCCTTTTTATGTGTACATACAAAGGCAATTAC [XGTACX_site6977]	7.4
AAAATATAAATCTAAGCATGCAAAAAAAATTTATAA [TGCATGCA_site1008]	6.72
TATTGTTTTAAAGAGACATGCAATATATATTATTCC [TGCATGCA_site752]	6.82
TTTTTATTCGATGATCAAATAGGTATATACAAAAAA [CACACA_negctrl_site1813]	7.22
AATAATAATAGTAATATGTACATATATATATATATA [TGCATGCA_negctrl_site542]	9.3
TATAAGCAAAAACACACACACATATATATATATATA [CACACA_site3804]	9.78

Sequence	gcPBM binding intensity (ln)
TTATTTAAAAAAAAGTGTACCCATATATTATAAATC [XGTACX_site8374]	6.97
TAATATTATAGATAAACACACATACACATGTAAATA [CACACA_site7049]	7
AAATGAAATTTGTATACACACAAATATATATATATA [CACACA_site836]	9.55
TTGTATATATATGGAAAAATATATATATATATATAT [GTGCAC_negctrl_site591]	9.75
TTTATTTATAGACACACACACAAAAAAAAAAAAAAA [CACACA_site7280]	7
TTTTTTTTTTTTTTTATAAAAGATAATTTTTTTTTA [CACACA_negctrl_site133]	6.86
CATTTATATTATAAATGTACAAAGTTCGTTTGTTCC [XGTACX_site1305]	6.91
TGTCTTTAAATTTCTCAACACACAGTTATAAAAAAT [CACACA_site8930]	7.33
GGGTCAAGTAAGCTGTTCCTCTTTTTCTTTCTCACT [GTGCAC_negctrl_site473]	7.16
TATAAATTTAAAATGACACACACTAATATTATTTAA [CACACA_site8334]	6.84
ATACGATTGAAACATTGTACATGAATATAAAAAAAT [XGTACX_site5704]	7.04
TAAACGTTAGTATGTGTGCACATTAGTAATTTAAAA	8.8
TTTTTATTATTCTTAAGGATATAACAAAAAAGAAAA [XGTACX_negctrl_site584]	6.94
ATTAATATTATTAGAAGTACTAATAGTAGTATAACT [XGTACX_site1325]	6.89
TTCTAAAAAAATAAAATTATCAAGGTTTTTAAACGT [CACACA_negctrl_site308]	6.91
TCAAAGCACACATACACACACATATAGATTTATATA [CACACA_site6272]	7.19
TCTTCATAAAAATAAAGTACATTATATATATAAATA [XGTACX_site3775]	7.15
TAAATAAATATATATTCACACACAAACATATATATA [CACACA_site9332]	7.23
ATGTTGTGTATATATACACACATACATATATATATA [CACACA_site8461]	9.16
GAAATATTTAGACACACACACAAACATATAAATATA [CACACA_site6980]	7.08
GATTATATTATATATTAAATATAAATATGTATTATA [TGCATGCA_negctrl_site66]	6.76
AATGGAAATGTAAAATGTACAGGACGCACACACATA [XGTACX_site7788]	7.25

Sequence	gcPBM binding intensity (ln)
AATGAGAAGGACTGCACACTAAAATGGAAGGAGAAA [CACACA_site1575]	7.3
AAAAAAAATTAAAATAAATTAAAAAGTAATTATATA [GTGCAC_negctrl_site615]	6.53
GAAAAAATTTTATGGTGTACTTTATTTATTTATATA [XGTACX_site6323]	7.07
TTATTACATGTTACTTAACACACATCTGGTGAAATA [CACACA_site7939]	6.98
GGAAAGACAGTTCACAGTACCCAGTAAACTCTACGG [XGTACX_site2557]	6.01
AAAATATAGTAATATATATATGTATATTATTTGTGG [CACACA_negctrl_site1590]	7.06
ATTAAGTTCAAATGTAGTACGTGTAAAAAAAAAAAA [XGTACX_site1578]	7.28
TACCATGTTCAAATTACACACATATAATGTAATATA [CACACA_site5150]	7.11
ATATATAATATTTTTATTTTTATTTTTTTTTTATGA [TGCATGCA_negctrl_site577]	6.6
TTTATATATGTAAATGCACACATATGTGTATATACT [CACACA_site8493]	7.18
AAAATAAATAAATAAATAAATATATATATATATATA [XGTACX_negctrl_site345]	8.97
TATAGGTATATATTATGTACTTATAATTATATAGAT [XGTACX_site1912]	7.04
TATTCGAAAATTATTCAAATTATCTAACATATTATT [TGCATGCA_negctrl_site70]	6.6
AAAAATAAAATAATATGTACATATATAATATATATA [XGTACX_site4786]	7.74
TAATTTTTTAGACACACACACATATAAATATAAATA [CACACA_site6195]	7.22
AATTGGAAACAACCAAAAAAATTAAAGTTGTATCCT [CACACA_negctrl_site565]	6.6
TTGTATATTATATGTACACACAATAAGTTAATATAA [CACACA_site909]	7.05
TTCCTTTGTCCTAACTGTACTCAAATTTATTAGTGG [XGTACX_site226]	7.3
ATAATATATTTTTGAACACACAATATAGATTTATAT [CACACA_site7857]	7.04
TAAATACAAAAATGTACACACATATATATATTTTTA [CACACA_site3503]	6.99
TAAATTTTAATATGCACACAAAATGTTATATTAAAA [CACACA_site4366]	7.32
CGGCACATTATATATACACACATATAAATATATACA [CACACA_site8086]	7.18
